According to US20240082414A1, “HUMAN TUMOR NECROSIS FACTOR ALPHA ANTIBODY GLUCOCORTICOID CONJUGATES” (Eli Lilly and Company, priority 2022, published 2024):

B1: Ab6: anti-human TNFα antibody, HC SEQ ID NO: 35, LC SEQ ID NO: 36 (antibody)
heavy: QVQLVQSGAEVKKPGASVKVSCKASGYTFTGYYIHWVRQAPGQGLEWMGWINPYTGGTNYAQKFQGRVTMTRDTSISTAYMELSRLRSDDTAVYYCARDIYGSSNYGGDVWGQGTTVTVSSASTKGPSVFPLAPSSKSTSGGTAALGCLVKDYFPEPVTVSWNSGALTSGVHTFPAVLQSSGLYSLSSVVTVPSSSLGTQTYICNVNHKPSNTKVDKRV[left out - human IgG1 Fc]
light: DIQMTQSPSSLSASVGDRVTITCQASQDISNYLNWYQQKPGKAPKLLIYDASNLETGVPSRFSGSGSGTDFTFTISSLQPEDIATYYCQQYDTLPLTFGGGTKVEIKRTVAAPSVFIFPPSDEQLKSGTASVVCLLNNFYPREAKVQWKVDNALQSGNSQESVTEQDSKDSTYSLSSTLTLSKADYEKHKVYACEVTHQGLSSPVTKSFNRGEC
B2: Ab5: anti-human TNFα antibody, HC SEQ ID NO: 25, LC SEQ ID NO: 28 (antibody)
heavy: QVQLVQSGAEVKKPGASVKVSCKASGYTFTGYYMHWVRQAPGQGLEWMGWINPYTGGTKYAQKFQGRVTMTRDTSISTAYMELSRLRSDDTAVYYCARDLYGSSNYGMDVWGQGTTVTVSSASTKGPCVFPLAPSSKSTSGGTAALGCLVKDYFPEPVTVSWNSGALTSGVHTFPAVLQSSGLYSLSSVVTVPSSSLGTQTYICNVNHKPSNTKVDKRV[left out - human IgG1 Fc with A378C (EU numbers)]
light: B1 light with D28G, S30R, T93K

What was measured:
dendritic cells = assay: Internalization into dendritic cells; type: cell-based, human; details: upon binding to TNFα on the cell surface
Procedure: Example 3a. […] CD14+monocytes were isolated from periphery blood mononuclear cells (PBMCs), cultured, and differentiated into immature dendritic cells (with IL-4 and GM-CSF), all using standard protocols. To obtain mature DCs, cells were treated with 1 μg/mL LPS (lipopolysaccharide) for 4 hours.
Cells were washed with 2% FBS PBS and resuspended in 100 μL 2% FBS PBS with Cytox Green live/dead dye. Data was collected on a BD LSR Fortessa X-20 and analyzed in FlowJo. Live single cells were gated, and percent of TAMRA fluorescence positive cells was recorded as the readout. To allow the comparison of molecules with data generated from different donors, a normalized internalization index was used. The internalization signal was normalized to IgG1 isotype (normalized internalization index=0) and an internal positive control PC (normalized internalization index=100) using the calculation:
where XTAMRA, IgG1 isotypeTAMRA, and PCTAMRA were the percent of TAMRA-positive population for the test molecule X, IgG1 isotype, and PC respectively.

soluble human TNFα = soluble human TNFα (Homo sapiens, UniProt P01375); assay: Inhibition of soluble TNFα induced apoptosis of L929 cells; type: cell-based
Procedure: L929 mouse fibrosarcoma cells naturally express the TNF receptor. When combined with Actinomycin-D, TNFα induces classical apoptosis in these cells, resulting in rapid cell death due to excessive formation of reactive oxygen intermediates which can be rescued by TNFα neutralization. Briefly, L929 were cultured in assay medium (1× DMEM media, 10% FBS, 1% Pen-Strep, 1% MEM essential amino acids, 1% L-glutamine, 1% sodium pyruvate). On the day of the assay, the cells were rinsed with 1× PBS (no Ca^++ or Mg^++) and detached from culture flasks with 0.25% trypsin+EDTA. The trypsin was inactivated with assay medium. L929 cells were centrifuged at 1500 rpm for 5 minutes at room temperature. The cell pellet was resuspended in assay medium, and 1×10^4 L929 cells (in 100 μL) were added to 96-well plates and placed in a tissue culture incubator (37° C., 95% relative humidity, 5% CO2) overnight.
(§1) To determine number of viable cells, assay medium was removed, and MTS-tetrazolium substrate mixture was added to the wells (100 μL) (where the mitochondrial dehydrogenase enzymes in metabolically active cells reduces the MTS-tetrazolium into a colored formazan product). The plates were placed in an incubator (37° C., 95% relative humidity, 5% CO2) for 2 hours. The cell death was determined by reading the plates at 490 nm on a microplate reader (Biotek Cytation 5 Imaging Multi-Mode Reader).

membrane human TNFα = assay: Inhibition of membrane TNFα induced apoptosis of L929 cells; type: cell-based
Procedure: as §1
The non-cleavable TNFα construct was generated with known mutations at the cleavage sites of the TNFα which allowed for expression of bioactive TNFα on the cell surface (Mueller et. al. 1999) in the absence of TNFα cleavage. […] Human IgG1 isotype control antibody was used as a negative control. The L929 cell death was determined essentially as described for the soluble TNFα induced apoptosis assay.

[1] = system: anti-drug antibodies against adalimumab; assay: ACE-Bridge binding to cynomolgus monkey anti-drug antibodies against adalimumab; details: FIG. 3
Procedure: Example 5a. […] The anti-adalimumab antibodies were detected using a titration of AP-HIMS in an ACE-Bridge assay. The assay was developed following the FDA Guidance on Immunogenicity testing. […] The following day, plates were washed three times with TBST and the captured anti-adalimumab antibodies were acid eluted using 65 μL/well of 300 mM acetic acid (Fisher Scientific, A38-500) for 5 min at room temperature. […] Next, 50 μL of the acid eluted samples were added to the polypropylene plate containing the mixture in neutralizing buffer and the ADA and were allowed to bridge to the labeled antibodies for 1 h at room temperature. MSD Gold 96-well streptavidin plates (Mesoscale, L15SA-1) were washed and blocked with TBS+1% BSA for 1 h at room temperature, then washed, and 80 μL of bridged samples were added to the plate for 1 h. The plates were washed three times with TBST, and 150 μL/well of 2×MSD Buffer (Mesoscale, R92TC-2) was added to the plates. Plates were read on an MSD SQ120 reader to provide the Tier 1 signal expressed as electro chemiluminescent units (ECLU).
The resulting ECLU signal was then plotted as a function of the concentration of AP-HIMS tested.

[2] = system: anti-drug antibodies against adalimumab; assay: ACE-Bridge binding to human patient anti-drug antibodies against adalimumab; details: FIG. 4
[3] = system: MHC-II presented peptides on human dendritic cells; assay: MHC-associated peptide proteomics (MAPPs) assay; type: cell-based; details: 10 donors
Procedure: Example 6a. MHC-associated peptide proteomics (MAPPs) Assay: MAPPs profiles the MHC-II presented peptides on human dendritic cells previously treated with exemplified anti-human TNFα antibodies. CD14+monocytes were isolated from periphery blood mononuclear cells (PBMCs), cultured and differentiated into immature dendritic cells (with IL-4 and GM-CSF) using standard protocols. Exemplified antibodies were added to the immature dendritic cells on day 4 and fresh media containing LPS to transform the cells into mature dendritic cells was exchanged after 5-hour incubation. The matured dendritic cells were lysed in RIPA buffer with protease inhibitors and DNAse the following day. Immunoprecipitation of MHC-II complexes was performed using biotinylated anti-MHC-II antibody coupled to streptavidin beads. The bound complex was eluted and filtered. The isolated MHC-II peptides were analyzed by a mass spectrometer. Peptide identifications were generated by an internal proteomics pipeline using search algorithms with no enzyme search parameter against a bovine/human database with test sequences appended to the database. Peptides identified from the exemplified antibodies were aligned against the parent sequence.

Chain of soluble human TNFα (P01375 77-233 limits assumed): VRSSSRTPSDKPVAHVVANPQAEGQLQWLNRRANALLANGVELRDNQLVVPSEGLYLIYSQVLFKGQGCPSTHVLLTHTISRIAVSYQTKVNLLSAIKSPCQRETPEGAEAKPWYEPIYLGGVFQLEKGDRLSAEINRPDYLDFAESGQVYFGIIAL

Row | Molecule | Internalization into immature and mature dendritic cells (in words) (dendritic cells) | Inhibition of soluble human TNFα induced apoptosis of L929 cells (in words) (soluble human TNFα) | Inhibition of membrane human TNFα induced apoptosis of L929 cells (in words) (membrane human TNFα) | binding to anti-drug antibodies against adalimumab (in words) [1] | share of the anti-drug antibodies against adalimumab recognized [1] | maximum ECLU signal ([1]; AP-HIMS from monkeys hyperimmunized with adalimumab, bridging with the labeled test antibody) [ECLU] | patient samples with low to no binding (ECLU signal below the cut-off point) ([2]; 21 serum samples of adalimumab-treated patients, cut-off 102 ECLU) | samples with ECLU signal above the cut-off point ([2]; cut-off 102 ECLU) | ECLU signal above the cut-off point in those five samples ([2]; within the variability of the assay) | Number of donors containing ≥1 cluster [3] | Number of non-germline clusters across all donors [3]
1 | B1 | internalize into immature and mature dendritic cells | inhibited | inhibited | low to no binding | about 10% | 4000 | 16 of the 21 | five out of 21 | less than 20% |  | 
2 | B2 |  |  |  |  |  |  |  |  |  | 8/10 | 3

Substitutions are numbered along the chain they refer to.
